Source: PubChem BioAssay AID1461 (National Center for Advancing Translational Sciences (NCATS), 2008)
Among all 220,000 compounds or so, about 2,300 (1%) were called active. The shares of active, inactive and inconclusive entries below differ from those in the screen. Calls come from the whole dose curve; as a rule, active = well fitted inhibition curve with a large enough effect; inconclusive = small, poorly fitted or top-dose-only effect, or effect the other way; inactive = no such curve, though single readings can be large or run the other way. Potencies of inconclusive entries are left out as doubtful fits.
Note: nearly all actives have a fitted effect of over 50% in size.
Potency is the fitted concentration of half-maximal effect; tags give direction and shape of the fitted curve.

Each compound was assayed against Neuropeptide S receptor (Homo sapiens) (UniProt Q6W5P4) (assay: qHTS Assay for Antagonists of the Neuropeptide S Receptor: cAMP Signal Transduction). Conditions: CHO-NPSR cells, cAMP TR-FRET, antagonist mode; series mostly up to 38.3 µM.
Chain of UniProt Q6W5P4 (Q6W5P4 whole entry, looked up): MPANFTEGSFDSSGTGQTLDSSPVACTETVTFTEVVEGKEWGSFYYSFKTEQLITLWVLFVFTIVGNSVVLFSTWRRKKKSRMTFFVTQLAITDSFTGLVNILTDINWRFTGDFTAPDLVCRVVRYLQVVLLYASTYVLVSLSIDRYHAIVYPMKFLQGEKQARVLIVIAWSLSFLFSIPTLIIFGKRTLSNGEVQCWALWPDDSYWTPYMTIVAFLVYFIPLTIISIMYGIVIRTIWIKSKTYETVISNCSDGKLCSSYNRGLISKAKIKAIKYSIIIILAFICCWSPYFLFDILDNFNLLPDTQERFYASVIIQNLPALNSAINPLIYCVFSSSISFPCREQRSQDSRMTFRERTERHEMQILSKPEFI
In the case of `CCCn1c(=O)c(/C(N)=N/O)nn(-c2cccc(C(F)(F)F)c2)c1=O`, the Potency is reported as “inactive”. `COc1ccc(OC)c(C(c2nnnn2C2CCCC2)N2CCN(c3ccccc3F)CC2)c1` (stereo not drawn) was tested, and the Potency was inconclusive [inhibitor, single point]. In the case of `CC(=O)Oc1ccc(Cl)cc1/C=C/c1ccc2ccccc2n1`, the Potency is reported as inconclusive [inhibitor, single point]. With `CCOC(=O)c1c(NC(=O)/C=C/C(=O)O)sc(C)c1-c1ccc(F)cc1` the Potency was inconclusive [activator, single point]. `COc1cccc(-n2c(CN3CCN(c4cccc(C)c4)C(C)C3)nc3ccc([N+](=O)[O-])cc3c2=O)c1` (stereo not drawn) was tested, and the Potency was “inactive”. With `COc1cccc(NC(=O)Cn2c(=O)n(CCC(=O)NCc3ccco3)c(=O)c3ccccc32)c1` the Potency was “inactive”. In the case of `O=C(CCl)Nc1cccc(CP(=O)(c2ccccc2)c2ccccc2)c1`, the Potency is reported as inconclusive [inhibitor, single point]. For `COc1ccc(Nc2cc(C)nc(NCc3ccccc3)n2)cc1`, the Potency was inconclusive [activator, single point]. For `CC(=O)Nc1ccc(SCC(=O)N(CCC#N)c2ccc(C)cc2)cc1`, the Potency was inconclusive [inhibitor, full curve, poor fit]. For `COc1cc(OC)cc(C(=O)Nc2ccc(S(=O)(=O)Nc3cc(C)nc(C)n3)cc2)c1`, the Potency was “inactive”. For `Clc1ccc(-c2cccs2)nn1`, the Potency was “inactive”. In the case of `CC(C)/C=C1\CC/C(=C\c2ccc(N(C)C)cc2)C1=O`, the Potency is reported as “inactive”. In the case of `O=C(NC(=S)NNS(=O)(=O)c1ccccc1)c1ccccc1[N+](=O)[O-]`, the Potency is reported as “inactive”. For `O=C(NCCN1CCCC1)C1(S(=O)(=O)c2ccc(Cl)cc2)CC1`, the Potency was inconclusive [inhibitor, single point]. In the case of `CCCCCCn1c(C)nc2c(c1=O)c1nc3ccccc3nc1n2/N=C/c1ccco1`, the Potency is reported as inconclusive [inhibitor, partial curve]. With `N=c1n(Cc2ccc(Cl)cc2)c2ccccc2n1CC(O)COc1ccccc1` (stereo not drawn) the Potency was inconclusive [inhibitor, single point]. In the case of `C=CCc1ccc(OCC(O)CN2CCCCC2)c(OC)c1` (stereo not drawn), the Potency is reported as “inactive”. In the case of `Cc1ccc(-c2cc(C(=O)N3CCN(c4ccc(F)cc4)CC3)c3ccccc3n2)o1`, the Potency is reported as inconclusive [inhibitor, single point]. `Cc1ccc2nc(/C(C#N)=C/c3cn[nH]c3-c3ccc(F)cc3)[nH]c2c1` was tested, and the Potency was inconclusive [inhibitor, single point]. With `COC(=O)c1ccc(-n2nc(C(F)(F)F)c3c2-c2ccoc2CC3)cc1` the Potency was inconclusive [inhibitor, partial curve]. For `O=C(CN(c1ccc(Cl)cc1)S(=O)(=O)c1ccccc1)N1CCN(c2ccccc2)CC1`, the Potency was inconclusive [inhibitor, single point]. For `CC1(C)c2ssc(=S)c2-c2ccccc2N1C(=O)CSC1=NCCS1`, the Potency was “inactive”. For `O=C(N1CCCCC1)C1(c2ccccc2)CCOCC1`, the Potency was inconclusive [inhibitor, partial curve]. `Cc1cc(-c2ccccc2)nc(Oc2cccc(C(F)(F)F)c2)c1S(C)(=O)=O` was tested, and the Potency was inconclusive [inhibitor, single point]. With `COc1ccc(C(c2nnnn2C(C)(C)C)N2CCN(c3nc4ccccc4s3)CC2)cc1` (stereo not drawn) the Potency was inconclusive [inhibitor, partial curve]. In the case of `CC(C)COC(=O)c1ccccc1N1C(=O)C2C3CCC(C3)C2C1=O` (stereo not drawn), the Potency is reported as “inactive”. With `Clc1ccc(-c2cc(-c3nnc4n3CCCCC4)c3ccccc3n2)cc1` the Potency was inconclusive [inhibitor, single point]. With `COc1nc(-c2ccccc2)ccc1-c1noc(C)n1` the Potency was inconclusive [inhibitor, single point]. For `CCn1c(O)c(/C=C2\C=Nc3ccccc32)sc1=Nc1ccccc1`, the Potency was “inactive”. `Cc1ccccc1OCC(=O)N/N=C/c1cc2ccccc2nc1Cl` was tested, and the Potency was inconclusive [inhibitor, single point]. `CCOC(=O)/C(C(=O)Nc1ccc(Br)cc1)=C1/NC(C)(C)Cc2ccccc21` was tested, and the Potency was “inactive”. `N/C(=N\S(=O)(=O)c1cc(C(F)(F)F)cc(C(F)(F)F)c1)c1ccc(Cl)cc1` was tested, and the Potency was inconclusive [activator, single point]. In the case of `CCCC(=O)Nc1ncnc2c1ncn2[C@@H]1O[C@@H]2COP(=O)(O)O[C@H]2[C@H]1OC(=O)CCC`, the Potency is reported as inconclusive [activator, full curve, poor fit]. `COC(=O)C1C(=O)C2=C(CC1C)NC(C)=C(C(=O)OC1CCCC1)C2c1ccc(N(C)C)cc1` (stereo not drawn) was tested, and the Potency was inconclusive [inhibitor, partial curve, poor fit]. In the case of `COc1ccc(S(=O)(=O)N2CCCN(CC(=O)Nc3ccc4c(c3)OCO4)CC2)cc1`, the Potency is reported as inconclusive [inhibitor, partial curve]. For `C[C@H](NC(=O)c1nc[nH]c1C(=O)NCc1ccccc1)C(=O)OC(C)(C)C`, the Potency was inconclusive [activator, single point]. In the case of `COc1ccccc1C(=O)Nc1ccccc1N1CCN(S(C)(=O)=O)CC1`, the Potency is reported as inconclusive [inhibitor, partial curve]. For `Cc1cc(C)cc(N(C(=O)CCC(=O)Nc2cc(C)on2)C(C(=O)NC2CCCC2)c2ccco2)c1` (stereo not drawn), the Potency was “inactive”. For `CSc1nsc(SC)c1C(=O)Nc1ccc(C(C)(C)C)cc1`, the Potency was inconclusive [activator, single point]. For `Nc1ncnc2c1nc(Sc1ccc(Cl)cc1)n2[C@H]1O[C@@H]2COP(=O)(O)O[C@H]2[C@@H]1O`, the Potency was “inactive”. `O=C(Nc1ccccc1Cl)/C(Cl)=C(\Cl)S(=O)c1ccccc1` (stereo not drawn) was tested, and the Potency was active: 7.94 µM. `Cc1ccc2nc(-c3ccc(N4C(=N)SC5CS(=O)(=O)CC54)cc3)sc2c1` (stereo not drawn) was tested, and the Potency was inconclusive [activator, partial curve]. With `COCCn1c(C)cc(/C=C2/NC(=O)N(c3ccc(Cl)cc3)C2=O)c1C` the Potency was “inactive”. In the case of `CCOC(=O)C1(CCc2ccccc2)CCN(Cc2cccc3nccnc23)CC1`, the Potency is reported as inconclusive [activator, partial curve]. With `Cc1ccc(OC(=O)Nc2ccccc2)cc1` the Potency was “inactive”. In the case of `Cc1ccc(CNC(=O)CSc2c3c(nc4cc(Cl)ccc24)CCCC3)o1`, the Potency is reported as inconclusive [inhibitor, single point]. With `CCCCCCOC(=O)C(C#N)c1nc2ccccc2nc1N1CCN(C)CC1` (stereo not drawn) the Potency was inconclusive [inhibitor, single point]. For `Cc1nc(C)c(C(=O)C2=C(O)C(=O)N(CCN3CCOCC3)C2c2cccnc2)s1` (stereo not drawn), the Potency was “inactive”. `O=C1Cc2ccccc2Sc2c(OCCN3CCCCC3)cccc21` was tested, and the Potency was inconclusive [inhibitor, single point]. With `Cc1ccc(NC(=O)CCl)cc1S(=O)(=O)N1CCCCCC1` the Potency was “inactive”. `CC(C)COC(=O)c1cccc2c1-c1ccccc1/C2=N\O` was tested, and the Potency was inconclusive [inhibitor, single point]. With `CCC(C)Nc1c2c(nc3c(-c4ccccc4)c(C)nn13)CCC2` (stereo not drawn) the Potency was inconclusive [inhibitor, single point]. `CCCOC(=O)C1C2C=CC3(CN(c4ccc(Cl)c(F)c4)C(=O)C13)O2` (stereo not drawn) was tested, and the Potency was inconclusive [activator, single point]. `FC(F)(F)COc1ccc(-c2nnc(SCc3ccccc3)o2)cn1` was tested, and the Potency was inconclusive [activator, single point]. For `COc1ccc(-c2c([C@H]3[C@@H]4C=CCC[C@@]4(C)C(=O)N3Cc3ccccc3)ccc3ccccc23)cc1OC`, the Potency was inconclusive [inhibitor, single point]. `Cc1sc(NC(=O)Cn2nc(C(F)(F)F)cc2C)c(C(=O)OC(C)C)c1C` was tested, and the Potency was inconclusive [inhibitor, partial curve]. In the case of `COc1cccc(NC(=O)CCN2CCC(C(N)=O)CC2)c1`, the Potency is reported as inconclusive [inhibitor, partial curve, poor fit]. For `O=C(Cc1ccccc1)Nc1ccccc1N1CCN(c2ccccc2)CC1`, the Potency was inconclusive [inhibitor, single point]. `CCOC(=O)C(C)Oc1cccc2c(=O)n(CC(=O)N3CCN(C(=O)OCC)CC3)ccc12` (stereo not drawn) was tested, and the Potency was inconclusive [inhibitor, partial curve, poor fit]. In the case of `Cc1oc2c(cc(NS(=O)(=O)c3ccc4c5c(cccc35)C(=O)N4)c3ccccc32)c1C(=O)OC(C)C`, the Potency is reported as inconclusive [inhibitor, single point]. In the case of `CC(C)(C)CC(C)(C)NC(=O)CSCC(=O)Nc1ccc2ccccc2c1`, the Potency is reported as inconclusive [inhibitor, single point]. In the case of `COc1ccc2cc3cc(C(=O)NCc4ccc5c(c4)OCO5)oc3nc2c1`, the Potency is reported as inconclusive [inhibitor, single point]. With `O=C(CN1CCN(CC(=O)Nc2ccccc2Cl)CC1)Nc1ccc2c(c1)OCCO2` the Potency was “inactive”. In the case of `Cc1ccc(-n2cc(CN(C)Cc3ncc[nH]3)c(-c3cccc(C)c3)n2)cc1`, the Potency is reported as “inactive”. `O=C(Nc1ccccn1)c1cc(-n2cnnc2)ccc1Cl` was tested, and the Potency was “inactive”. For `CCCSc1nc(C)cc(C)c1S(=O)(=O)c1ccccc1C`, the Potency was inconclusive [inhibitor, single point]. With `CCOc1ccc2nc(N3CCC(C(=O)N4CCN(C(=O)c5ccco5)CC4)CC3)sc2c1` the Potency was “inactive”. `Brc1ccc(-c2n(-c3ccccn3)c3ccccc3[n+]2-c2ccccn2)cc1` was tested, and the Potency was inconclusive [inhibitor, single point].
